Measurements published in patent US20230278972A1, “SUBSTITUTED HALOALKYL SULFONANILIDE HERBICIDES” (FMC Corporation, priority 2020, published 2023).

System: sedge, umbrella (small-flower umbrella sedge, Cyperus difformis)
Test: Test B1 flooded paddy test, sedge, umbrella
Assay type: in vivo
Settings: 250 g ai/ha, Flood, applied to paddy water, 2-leaf stage, visually evaluated after 10 to 14 days
Description: A dash (-) response means no test result.

SMILES | Plant response rating, Sedge, Umbrella (0 to 100 scale, 0 is no effect, 100 is complete control)
COC1CCCN(C(=O)c2cc(NS(=O)(=O)C(F)(F)F)c(Cl)c(F)c2C)C1 (stereo not shown) [Compound 334] | 90
Cc1cc(C)c(N(COC(=O)C(C)(C)C)S(=O)(=O)C(F)(F)F)cc1C(=O)N1CCC(C)CC1 [Compound 353] | 85
CCOC(=O)N(c1cc(C(=O)N2C[C@@H](C)O[C@@H](C)C2)c(C)c(C)c1C)S(=O)(=O)C(F)(F)F [Compound 332] | 90
CCOC(=O)N(c1cc(C(=O)N2C[C@@H](C)O[C@H](C)C2)c(C)c(C)c1C)S(=O)(=O)C(F)(F)F (relative stereo) [Compound 374] | 95
Cc1cc(C)c(-n2nccc(C)c2=O)cc1NS(=O)(=O)C(F)(F)F [Compound 281] | 0
Cc1cc(C)c(C2=NOC3OCCCC23)cc1NS(=O)(=O)C(F)(F)F (stereo not shown) [Compound 372] | 75
Cc1c(NS(=O)(=O)C(F)(F)F)cc(C(=O)N2CCCCC2)c(C)c1C [Compound 326] | 95
CCc1cc(C)c(C2=NOC3(CCCC3)C2)cc1NS(=O)(=O)C(F)(F)F [Compound 311] | 0
Cc1cc(C)c(N(COC(=O)C(C)(C)C)S(=O)(=O)C(F)(F)F)cc1N1CCC2(CCC(C)CC2)C1=O (stereo not shown) [Compound 401] | 95
COc1cc(C)c(NS(=O)(=O)C(F)(F)F)cc1C1=NOC2CCCC12 (stereo not shown) [Compound 312] | 0
CCCCOC1CC(c2cc(NS(=O)(=O)C(F)(F)F)c(C)cc2C)=NO1 (stereo not shown) [Compound 323] | 0
Cc1c(NS(=O)(=O)C(F)(F)F)cc(C(=O)N2CCC(C)CC2)c(C)c1C [Compound 366] | 95
COC(=O)OCN(c1cc(C2=NOC3CCCC23)c(C)cc1C)S(=O)(=O)C(F)(F)F (stereo not shown) [Compound 315] | 90
Cc1cc(C)c(C2=NOC(C(C)C)C2)cc1NS(=O)(=O)C(F)(F)F (stereo not shown) [Compound 381] | 85
Cc1c(NS(=O)(=O)C(F)(F)F)cc(C(=O)N2CCSCC2)c(C)c1C [Compound 283] | 80
Cc1c(C(=O)N2C[C@@H](C)O[C@@H](C)C2)cc(N(COC(=O)C(C)(C)C)S(=O)(=O)C(F)(F)F)c(C)c1C [Compound 331] | 90
Cc1c(C(=O)N2CCC(F)(F)CC2)cc(N(COC(=O)C(C)(C)C)S(=O)(=O)C(F)(F)F)c(C)c1C [Compound 360] | 95
Cc1cc(C)c(N(COC(=O)C(C)(C)C)S(=O)(=O)C(F)(F)F)cc1N1CCC2(CCC(C(F)(F)F)CC2)C1=O (stereo not shown) [Compound 403] | 20
Cc1c(C(=O)N2CCCCC2)cc(N(COC(=O)C(C)(C)C)S(=O)(=O)C(F)(F)F)c(C)c1C [Compound 329, [[(Trifluoromethyl)sulfonyl][2,3,4-trimethyl-5-(1-piperidinylcarbonyl)phenyl]amino]methyl 2,2-dimethylpropanoate] | 95
Cc1cc(C)c(C2=NOC3COCC23)cc1NS(=O)(=O)C(F)(F)F (stereo not shown) [Compound 297] | 95
Cc1ccc(C2=NOC3CCCC23)cc1NS(=O)(=O)C(F)(F)F (stereo not shown) [Compound 377] | 0
Cc1c(C(=O)N2CCC(F)CC2)cc(N(COC(=O)C(C)(C)C)S(=O)(=O)C(F)(F)F)c(C)c1C [Compound 361] | 95
COCC1CC(c2cc(N(COC(=O)C(C)(C)C)S(=O)(=O)C(F)(F)F)c(C)cc2C)=NO1 (stereo not shown) [Compound 338] | 90
CCC1CC(c2cc(N(COC(=O)C(C)(C)C)S(=O)(=O)C(F)(F)F)c(C)cc2C)=NO1 (stereo not shown) [Compound 376] | 95
C#CCN(C)C(=O)c1cc(N(COC(=O)C(C)(C)C)S(=O)(=O)C(F)(F)F)c(C)c(C)c1C [Compound 371] | 98
Cc1c(NS(=O)(=O)C(F)(F)F)cc(C(=O)N2CCOCC2)c(C)c1Cl [Compound 290] | 65
Cc1cc(C)c(C2=NOC3(C)CCCC23)cc1NS(=O)(=O)C(F)(F)F (stereo not shown) [Compound 340] | 95
COC1CCN(C(=O)c2cc(N(COC(=O)C(C)(C)C)S(=O)(=O)C(F)(F)F)c(C)c(C)c2C)CC1 [Compound 370] | 98

SMILES | Plant response rating, Sedge, Umbrella (0 to 100 scale, 0 is no effect, 100 is complete control)
Cc1cc(C(F)(F)F)c(C2=NOC3CCCC23)cc1NS(=O)(=O)C(F)(F)F (stereo not shown) [Compound 306] | 98
CCOC(=O)N(c1cc(C(=O)N2CCSCC2)c(C)c(C)c1C)S(=O)(=O)C(F)(F)F [Compound 286] | 70
Cc1cc(C)c(N(C(=O)OC(C)C)S(=O)(=O)C(F)(F)F)cc1C1=NOC2CCCC12 (stereo not shown) [Compound 295] | 90
CCOC(=O)N(c1cc(C(=O)N2CCOCC2)c(C)cc1C)S(=O)(=O)C(F)(F)F [Compound 363] | 95
Cc1cc(C)c(N(COC(=O)C(C)(C)C)S(=O)(=O)C(F)(F)F)cc1C(=O)N1CCC(F)(F)CC1 [Compound 350] | 85
CCOC(=O)N(c1cc(C(=O)N2CCCCC2)c(C)c(C)c1C)S(=O)(=O)C(F)(F)F [Compound 330, Ethyl N-[(trifluoromethyl)sulfonyl]-N-[2,3,4-trimethyl-5-(1-piperidinylcarbonyl)phenyl]carbamate] | 100
Cc1c(NS(=O)(=O)C(F)(F)F)cc(C(=O)N2CCC(F)CC2)c(C)c1C [Compound 358] | 55
Cc1cc(C)c(N2CCC3(CCC(C)CC3)C2=O)cc1NS(=O)(=O)C(F)(F)F (stereo not shown) [Compound 402] | 85
CCOC1CC(c2cc(NS(=O)(=O)C(F)(F)F)c(C)cc2C)=NO1 (stereo not shown) [Compound 318] | 80
Cc1cc(Cl)c(NS(=O)(=O)C(F)(F)F)cc1N1CC2(CCCCC2)OC1=O [Compound 394] | 85
Cc1cc(F)c(NS(=O)(=O)C(F)(F)F)cc1C1=NOC2(CCCC2)C1 [Compound 303] | 0
Cc1cc(C)c(N(COC(=O)C(C)(C)C)S(=O)(=O)C(F)(F)F)cc1N1CCC2(CCC(F)(F)CC2)C1=O [Compound 397] | 98
Cc1cc(Br)c(C2=NOC3CCCC23)cc1NS(=O)(=O)C(F)(F)F (stereo not shown) [Compound 302] | 75
Cc1cc(C)c(N(C(=O)OCC(C)C)S(=O)(=O)C(F)(F)F)cc1C1=NOC2CCCC12 (stereo not shown) [Compound 299] | 95
CCOC(=O)N(c1cc(C(=O)N2CCC(F)(F)CC2)c(C)cc1C)S(=O)(=O)C(F)(F)F [Compound 351] | 70
Cc1cc(C2CC2)c(C2=NOC3CCCC23)cc1N(COC(=O)C(C)(C)C)S(=O)(=O)C(F)(F)F (stereo not shown) [Compound 355] | 70
Cc1c(C(=O)N2CCOCC2)cc(NS(=O)(=O)C(F)(F)F)c(Cl)c1F [Compound 321] | 98
Cc1cc(Cl)c(NS(=O)(=O)C(F)(F)F)cc1N1CCC2(CCCCC2)C1=O [Compound 393] | 95
CCOC(=O)N(c1cc(C(=O)N2CCC(c3ccccc3)CC2)c(C)cc1C)S(=O)(=O)C(F)(F)F [Compound 365] | 70
Cc1cc(C)c(N(COC(=O)C(C)(C)C)S(=O)(=O)C(F)(F)F)cc1C(=O)N1CCOCC1 [Compound 362] | 75
CCc1cc(C)c(NS(=O)(=O)C(F)(F)F)cc1C1=NOC2CCCC12 (stereo not shown) [Compound 305] | 90
Cc1cc(C)c(N(COC(=O)C(C)(C)C)S(=O)(=O)C(F)(F)F)cc1C1=NOC2CCCCCC12 (single isomer, unassigned) [Compound 294] | 95
Cc1c(C(=O)N2CCOCC2)cc(N(COC(=O)C(C)(C)C)S(=O)(=O)C(F)(F)F)c(C)c1C [Compound 324, [[(Trifluoromethyl)sulfonyl][2,3,4-trimethyl-5-(4-morpholinylcarbonyl)phenyl]amino]methyl 2,2-dimethylpropanoate] | 98
Cc1c(C(=O)N2CCC(C)CC2)cc(N(COC(=O)C(C)(C)C)S(=O)(=O)C(F)(F)F)c(C)c1C [Compound 369] | 98
CCOC(=O)N(c1cc(C(=O)N2CCC(C)CC2)c(C)cc1C)S(=O)(=O)C(F)(F)F [Compound 354] | 70
CCOC1CC(c2cc(N(COC(=O)C(C)(C)C)S(=O)(=O)C(F)(F)F)c(C)cc2C)=NO1 (stereo not shown) [Compound 339] | 65
Cc1cc(C)c(N(S(=O)(=O)C(F)(F)F)S(=O)(=O)C(F)(F)F)cc1C1=NOC2COCC12 (stereo not shown) [Compound 296] | 85
